Screen size: about 310,000 compounds; about 2,200 (0.71%) showed an effect of 50% or more. Effects have a minus sign here. The list shows a part of the results.

For this assay, the target named is human ether-à-go-go-related gene (hERG) potassium channel (human, UniProt Q12809). As to the kind of experiment: primary screen, population patch clamp on CHO cells stably expressing hERG.
human ether-à-go-go-related gene (hERG) potassium channel, sequence (Q12809 whole entry, looked up): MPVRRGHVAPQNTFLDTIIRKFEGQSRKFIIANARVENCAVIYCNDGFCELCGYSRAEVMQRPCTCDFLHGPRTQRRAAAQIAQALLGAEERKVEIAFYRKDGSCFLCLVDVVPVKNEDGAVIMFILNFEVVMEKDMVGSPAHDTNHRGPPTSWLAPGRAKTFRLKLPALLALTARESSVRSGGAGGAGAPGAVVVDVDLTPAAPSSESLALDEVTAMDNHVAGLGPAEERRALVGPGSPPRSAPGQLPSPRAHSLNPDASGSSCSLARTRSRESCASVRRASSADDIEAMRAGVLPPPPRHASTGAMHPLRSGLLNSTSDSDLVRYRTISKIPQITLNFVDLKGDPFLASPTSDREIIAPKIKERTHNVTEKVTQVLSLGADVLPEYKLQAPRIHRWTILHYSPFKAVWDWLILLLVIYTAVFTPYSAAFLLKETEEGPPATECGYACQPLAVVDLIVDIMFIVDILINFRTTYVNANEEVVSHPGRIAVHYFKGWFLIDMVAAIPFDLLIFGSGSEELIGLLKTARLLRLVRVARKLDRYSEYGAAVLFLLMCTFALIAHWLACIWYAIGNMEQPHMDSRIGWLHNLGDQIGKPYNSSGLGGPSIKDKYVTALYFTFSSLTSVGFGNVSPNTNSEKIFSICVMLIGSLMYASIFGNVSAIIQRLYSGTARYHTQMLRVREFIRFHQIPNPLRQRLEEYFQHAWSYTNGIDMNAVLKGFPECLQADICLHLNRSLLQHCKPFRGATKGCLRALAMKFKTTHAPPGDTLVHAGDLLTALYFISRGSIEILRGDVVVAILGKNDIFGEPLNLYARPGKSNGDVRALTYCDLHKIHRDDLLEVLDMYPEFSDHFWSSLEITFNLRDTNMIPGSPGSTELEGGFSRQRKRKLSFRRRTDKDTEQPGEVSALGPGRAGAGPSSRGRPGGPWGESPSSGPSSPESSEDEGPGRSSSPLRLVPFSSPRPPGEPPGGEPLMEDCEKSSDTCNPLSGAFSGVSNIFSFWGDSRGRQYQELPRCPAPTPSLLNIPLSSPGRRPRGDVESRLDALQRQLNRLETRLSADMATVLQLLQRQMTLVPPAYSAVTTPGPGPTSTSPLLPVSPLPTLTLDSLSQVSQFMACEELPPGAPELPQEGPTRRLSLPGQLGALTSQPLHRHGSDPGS
Consider `Cc1ccc(Cl)c(Cn2cnc3c(cnn3C(C)(C)C)c2=O)c1F`, for which the “hERG current change (%, negative = inhibition) at 1uM” value is listed as 18.9%.

As to `CNC(=O)c1c(Cl)cnn1-c1ccc(F)cc1`, the “hERG current change (%, negative = inhibition) at 1uM” value is recorded as 8.38%.

Consider `COCCn1c(SCC(=O)Nc2c(C)n(C)n(-c3ccccc3)c2=O)nc2ccccc2c1=O`, for which the “hERG current change (%, negative = inhibition) at 1uM” value was 1.25%. `C[C@@H]1CC2OC(=O)[C@@]3(C)C(=O)CC[C@@](C)(C23)[C@@]1(O)CCc1ccoc1` (stereo partly drawn): the “hERG current change (%, negative = inhibition) at 1uM” value is reported as 12.8%. As to `C1CSC2(N1)C1CC3CC(C1)CC2C3.Cl` (stereo not drawn), the “hERG current change (%, negative = inhibition) at 1uM” value turned out to be 6.29%. With `O=c1cc(-c2ccccc2)n(S(=O)(=O)c2ccc3ccccc3c2)o1`, the “hERG current change (%, negative = inhibition) at 1uM” value was 4.78%. For `N#CCCN1CCN(C(CNS(=O)(=O)c2ccc(Cl)cc2)c2ccccc2)CC1` (stereo not drawn), the “hERG current change (%, negative = inhibition) at 1uM” value is given as -10.8%. In the case of `CC(C)Oc1ccc(Cc2c(O)nc(NCCCN(C)C)[nH]c2=O)cc1`, the “hERG current change (%, negative = inhibition) at 1uM” value is 5.21%.

With `COc1ccc(N(C)C(=O)c2oc(=O)c3ccccc3c2-c2ccc(C)cc2)c(OC)c1`, the “hERG current change (%, negative = inhibition) at 1uM” value was determined as 3.27%. Regarding `CC(Oc1ccc(C(C)(C)C)cc1)C(=O)NC1CC(C)(C)NC(C)(C)C1` (stereo not drawn), the “hERG current change (%, negative = inhibition) at 1uM” value is reported as 2.21%. For the compound `C(=N\Nc1ncnc2ccccc12)/c1ccccc1`, the “hERG current change (%, negative = inhibition) at 1uM” value is reported as 6.49%. Take `CCCCC1=NN(C(=O)c2ccncc2)C(O)(C(F)(F)F)C1` (stereo not drawn): the “hERG current change (%, negative = inhibition) at 1uM” value is on record as 14.7%. Consider `CC(=O)Nc1ccc(S(=O)(=O)NCC(=O)OCC(=O)Nc2sccc2C(N)=O)cc1`, for which the “hERG current change (%, negative = inhibition) at 1uM” value came out at 5.87%. For `CCOC(=O)COc1ccc(C2NC(C(=O)O)CS2)cc1` (stereo not drawn), the “hERG current change (%, negative = inhibition) at 1uM” value worked out at 17.6%. Regarding `Cc1cc(C)nc(CCNC(=O)c2cc(COc3c(C)cccc3C)on2)n1`, the “hERG current change (%, negative = inhibition) at 1uM” value is recorded as -2.06%. The figure for `CCOc1ccc(NC(=O)CN(C)C(=O)CCNC(=O)c2ccc(Br)cc2)cc1OCC` is -10.4%; for `Cc1cc(C)c(S(=O)(=O)c2ccccc2C)c(N(C)C)n1` it is 15.6%. Then `CCCNC(=O)CN(C1CCCCC1)S(C)(=O)=O`, with 19.8%; and `C=C1C(=O)[C@@]23C[C@H]4[C@@H]5[C@@]6(C)CCC[C@@]57[C@@H]2[C@@H](O)[C@@H]1C[C@H]3[C@H]7N4C6`, with 13.2%. In the case of `CCCNC(=S)Nc1ccc(F)cc1F`, the “hERG current change (%, negative = inhibition) at 1uM” value was determined as 13.7%.

Regarding `CC1CCCCC1NC(=O)COc1ccccc1C#N` (stereo not drawn), the “hERG current change (%, negative = inhibition) at 1uM” value is recorded as 5.57%. Consider `CC1=C(C)CC(C(=O)N2CCN(C/C=C/c3ccccc3)CC2)C(C(=O)O)C1` (stereo not drawn), for which the “hERG current change (%, negative = inhibition) at 1uM” value is recorded as 10.8%. Then `CN(Cc1cnn(C)c1)C(=O)c1cc2ccccc2oc1=O`, with 4.52%.

As for `CC(Oc1ccc(Cl)cc1)c1ccn[nH]1` (stereo not drawn), the “hERG current change (%, negative = inhibition) at 1uM” value is recorded as 14%. As for `CO/N=C(/c1nonc1N)N1CCN(c2ccc([N+](=O)[O-])cc2)CC1`, the “hERG current change (%, negative = inhibition) at 1uM” value was 1.65%.

With `COC(=O)c1cc(C)sc1NC(=O)c1cccnc1`, the “hERG current change (%, negative = inhibition) at 1uM” value stood at 15.4%.

Take `COc1cccc(C(=O)Nc2c3c(nn2-c2cccc(C)c2C)CS(=O)C3)c1OC` (stereo not drawn): the “hERG current change (%, negative = inhibition) at 1uM” value is recorded as 6.72%.

For `O=C(c1cn(-c2ccccc2)nc1-c1ccncc1)n1nnc2ccccc21`, the “hERG current change (%, negative = inhibition) at 1uM” value is 9.61%. Turning to `Cc1ccc(/C=C/S(=O)(=O)NCCC(=O)NCc2ccc(F)cc2)cc1`, the “hERG current change (%, negative = inhibition) at 1uM” value was -1.98%. For `O=C(CN1CCN(C(C(=O)Nc2ccc(F)cc2)c2ccccc2)CC1)NC1CC1` (stereo not drawn), the “hERG current change (%, negative = inhibition) at 1uM” value is given as -2.24%. On to `CN(C)S(=O)(=O)c1ccc(Cl)c(C(=O)NNC(=O)c2ccc3c(c2)OCO3)c1`, for which the “hERG current change (%, negative = inhibition) at 1uM” value is reported as 17.2%. Regarding `Cc1cc(Br)c(S(=O)(=O)NCc2cccnc2)cc1C`, the “hERG current change (%, negative = inhibition) at 1uM” value worked out at 8.27%. Turning to `CCN(CC)CC(=O)Nc1scc2c1c(=O)oc1ccccc12`, the “hERG current change (%, negative = inhibition) at 1uM” value is listed as 10.6%.

`O=C(Nc1cccc(C(F)(F)F)c1)c1cccnc1N1CCN(CCO)CC1`: the “hERG current change (%, negative = inhibition) at 1uM” value is -26.4%. On to `Cc1nc(N2CCN(C(=O)c3ccco3)CC2)c2c3c(sc2n1)CCC3`, for which the “hERG current change (%, negative = inhibition) at 1uM” value is -19.9%. With `COC(=O)c1sc2nc(N)c(C#N)cc2c1N`, the “hERG current change (%, negative = inhibition) at 1uM” value worked out at 17.8%.

For the compound `O=C(c1cccc([N+](=O)[O-])c1)c1ccc2c(c1)C(=O)NC2=O`, the “hERG current change (%, negative = inhibition) at 1uM” value turned out to be 12.4%. The figure for `COc1ccc2c(c1)C=CC1(O2)N(CCO)c2ccccc2C1(C)C` (stereo not drawn) is 10.4%. Then `Cc1sc2ncn(CC(=O)NCc3ccco3)c(=O)c2c1-c1ccc(F)cc1`, with 10.3%; and `COc1ccc(CN2CN=C(Nc3nc4ccccc4s3)NC2)cc1`, with -1.19%. Turning to `Fc1ccc(Cn2c(SCc3ccc(F)c(F)c3)nnc2C(F)(F)F)cc1`, the “hERG current change (%, negative = inhibition) at 1uM” value was -14.5%. The figure for `Cc1ccc(NC(=S)N2CCN(S(C)(=O)=O)CC2)cc1` is 22.4%; for `O=C(NC(C(=O)c1ccccc1)N1CCCCCC1)c1ccco1` (stereo not drawn) it is 12.7%; for `CC1(C)CC(NC(=O)CC(c2ccccc2)c2ccccc2)CC(C)(C)N1` it is 2.61%. As for `CCOC(=O)C(Cc1cc(C(C)=O)ccc1OC(C)C)C(=O)OCC`, the “hERG current change (%, negative = inhibition) at 1uM” value is 9.86%.

As for `O=C(OCc1cc2ccccc2[nH]c1=O)c1cccc([N+](=O)[O-])c1`, the “hERG current change (%, negative = inhibition) at 1uM” value came out at 1.84%. Consider `Cc1ccc(C(C)NC(=O)Cc2cccs2)cc1C` (stereo not drawn), for which the “hERG current change (%, negative = inhibition) at 1uM” value is listed as -3.55%.

On to `C[C@@H](C(=O)NCc1ccco1)N1C(=O)N2CCc3c([nH]c4ccccc34)[C@@]2(C)C1=O`, for which the “hERG current change (%, negative = inhibition) at 1uM” value is 1.69%.

For `Cc1cc(NC(=O)c2ccco2)c(=O)n(Cc2cccc(C(F)(F)F)c2)c1`, the “hERG current change (%, negative = inhibition) at 1uM” value is recorded as 5.53%. Take `CCc1cccc(Nc2cc(C)nc3nc(C)nn23)c1`: the “hERG current change (%, negative = inhibition) at 1uM” value was -10.1%. Take `COc1ccc(CCNC(=O)c2ccc(NC3=NC4CS(=O)(=O)CC4S3)cc2)cc1OC` (stereo not drawn): the “hERG current change (%, negative = inhibition) at 1uM” value came to 20.4%.

As to `CCOC(=O)c1c(NC(=O)c2ccco2)sc2c1CCCCC2`, the “hERG current change (%, negative = inhibition) at 1uM” value is listed as 11.7%. The figure for `O=C(NCCS(=O)(=O)N1CCN(c2ccccc2)CC1)C1CC(=O)N(c2ccccc2)C1` (stereo not drawn) is 18%; for `CC(C)(C)C(=O)Nc1nnc(-c2ccccc2)c(-c2ccccc2)n1` it is 6%. As for `Fc1cccc(F)c1-n1c(CN2CCCCC2)csc1=S`, the “hERG current change (%, negative = inhibition) at 1uM” value was determined as 12.3%. Then `Cn1c(=O)[nH]c2nnc(-c3ccc(Cl)c(Cl)c3)nc2c1=O`, with 5.62%; and `COc1ccccc1CNC(=O)/C=C/C(=O)O`, with 9.93%.

These data come from PMC4336329 (PLoS ONE, 2015).
